From PubChem BioAssay AID463173 (ICCB-Longwood Screening Facility, Harvard Medical School, 2010) come the findings set out here.

Out of some 52,000 compounds screened, about 4,300 (8.3%) were called active. Rule as the data show it: active = survival mostly below about 52% (no sharp cut-off); inactive = mostly above about 56%. Some of the results follow.

This test has as its system DeltatarO mutant. Kind of test: growth inhibition of S. aureus wild type versus tarO mutant, primary screen, teichoic acid synthesis inhibitors, RN4220, OD600 (AID 463173). Conditions: OD600, 18 h, stronger effect = lower value, screened at 18.75 µg/mL (by protocol).
Regarding `O=C(c1cccs1)N1CCN(C(=O)c2cccs2)CC1`, the survival is inactive: 105%.
As for `COc1ccc(C2(CNC(=O)C(=O)Nc3ccc(C)c(Cl)c3)CCCC2)cc1OC`, the figure is inactive: 68%; as for `CCN(CC)S(=O)(=O)c1nnc(NC(=O)COc2ccccc2)s1`, inactive: 100%; as for `CC(=O)c1ccc(N2C(=O)N(Cc3ccc(F)cc3)c3ccccc3S2(=O)=O)cc1`, inactive: 62%.
`CC(C)(C)OC(=O)N1CCC(c2c(C(=O)NCCN3CCOCC3)cnn2-c2cccc(F)c2)CC1`: the survival was inactive: 109%.
Regarding `CCN1CCN(c2oc(-c3ccc(COc4ccc(OC)cc4)o3)nc2C#N)CC1`, the survival was active: 49%.
Take `COc1ccc(OC)c(C(=O)CN2C(=O)N(c3cc(C)cc(C)c3)S(=O)(=O)c3ccccc32)c1`: the survival is inactive: 81%.
For the compound `Clc1cccc(-n2ncc3c(NCCC4=CCCCC4)ncnc32)c1`, the survival is active: 37%.
As for `O=C(NCc1cccnc1)C(C(=O)c1ccc(F)cc1)n1ccccc1=O` (centres undefined), the figure is inactive: 93%; as for `O=C(NC1CCCC1)C(c1ccccn1)N(C(=O)c1ccc2c(c1)OCCO2)c1ccccc1` (centres undefined), inactive: 94%.
As for `COc1ccc(C)cc1NC(=O)CSc1nc(=O)n(Cc2cccnc2)c2c1CCC2`, the figure is inactive: 97%; as for `CCCCCN1C(C(=O)c2ccccc2)=C(NC(=O)c2ccc(OC)c(OC)c2)c2ccccc2S1(=O)=O`, inactive: 84%; as for `COC(=O)c1ccccc1NC(=O)CSc1cc(-c2ccccc2)nc(C)n1`, inactive: 71%.
On to `Clc1ccc(-c2ccc(CNCCSc3nnnn3-c3ccccc3)o2)cc1`, for which the survival was inactive: 52%.
Next, `COc1ccc(NC(=O)N2CCC(CN3CCCC3)CC2)c(OC)c1`: inactive: 76%; `O=C(C1CCCN(S(=O)(=O)c2cccc3nonc23)C1)N1CCN(c2ccccc2F)CC1` (centres undefined): inactive: 82%; `CCn1c(=O)c2sccc2n2c(CCCC(=O)Nc3ccc(C)cc3)nnc12`: inactive: 76%.
As for `Cc1ccc(N2CCN(c3ncnc4onc(-c5ccc(F)cc5)c34)CC2)c(C)c1`, the figure is inactive: 84%.
Next, `COc1ccc(-n2nnnc2C2CCN(S(=O)(=O)c3cc(Cl)ccc3OC)CC2)cc1`: inactive: 68%; `COc1cc(NC(=O)c2c(C)nn(-c3ccc(F)cc3)c2-n2cccc2)cc(OC)c1`: inactive: 78%; `Cc1ccc(S(=O)(=O)NCCc2nnc3ccc(SCc4cccc(F)c4)nn23)cc1`: inactive: 65%.
Turning to `COc1ccccc1NC(=O)C(C#N)Cc1cc2cc(C)cc(C)c2[nH]c1=O` (centres undefined), the survival is inactive: 98%.
As for `CCC(C)(C)NC(=O)Cn1nnc(-c2ccc(OC)cc2)n1`, the figure is inactive: 94%.
Next, `CCCCN1C(=O)C(NC(=O)c2ccc(C(C)(C)C)cc2)(C(F)(F)F)C(C(=O)OC)=C1C` (centres undefined): inactive: 59%; `COc1ccc(-c2nc(SCC(=O)NCc3nc4ccccc4n3C)n3[nH]c(=O)cc3n2)cc1`: inactive: 74%.
On to `COc1ccc(NC(=O)C2CCN(c3nc4ccccc4[nH]3)CC2)cc1OC`, for which the survival was inactive: 66%.
For the compound `Cc1cc(O)c(C(c2ccc(F)cc2)N2CCN(c3ccccc3)CC2)c(=O)n1Cc1ccco1` (centres undefined), the survival is inactive: 77%.
`CC(NC(=O)c1cccc(Nc2nc3ccccc3n3nnnc23)c1)c1ccccc1` (centres undefined): the survival is inactive: 79%.
As for `O=C1C2=C(Nc3ccccc3SC2c2ccc(C(F)(F)F)cc2)c2ccccc21` (centres undefined), the survival was active: 16%.
Next, `O=C(CN1C=NS(=O)(=O)c2ccccc21)Nc1ccc(Br)cc1`: inactive: 92%; `Cc1ccccc1CNC(=O)CCCn1ncn2c(cc3occc32)c1=O`: inactive: 73%; `Cc1ccc(CC23CN4CC(CN(C4)C2)C3=O)c(C)c1`: inactive: 89%.
Regarding `COc1ccc(NC(=O)CSC2=Nc3ccccc3C3=NC(Cc4ccccc4)C(=O)N23)cc1` (centres undefined), the survival was inactive: 87%.
Next, `COc1ccccc1Nc1ncc2c(n1)CCN(CC(C)C)C2`: inactive: 76%.
As for `COCCNC(=O)c1ccc2c(c1)NC(=O)C(CS(=O)(=O)Cc1ccc(F)cc1Cl)N2` (centres undefined), the figure is inactive: 130%; as for `COc1cccc(CNC(=O)c2ccc3oc(=O)n(Cc4ccccc4)c3c2)c1`, active: -1%; as for `CCCN1C2CCCC1CC(NC(=O)c1ccccc1C)C2` (centres undefined), inactive: 76%.
As for `COc1ccc(-c2nc3ccccc3o2)cc1NC(=O)c1ccc(-c2ccc(C)c(Cl)c2)o1`, the figure is active: 41%.
In the case of `CC(C)CC(=O)Nc1nc2ccc(S(C)(=O)=O)cc2s1`, the survival was inactive: 53%.
Next, `N#CC(C#N)C(CC(=O)c1ccccc1)c1ccc2c(c1)OCO2` (centres undefined): inactive: 51%; `N=c1n(CC(N)=O)c2ccccc2n1Cc1ccccc1Cl`: inactive: 99%.
With `COc1ccc(CC(=O)Nc2c(C(=O)N3CCN(c4ccccc4F)CC3)oc3ccccc23)cc1OC`, the survival is inactive: 78%.
As for `Cc1ccc(Nc2c(-c3ccco3)nc3ccc(C)cn23)cc1`, the figure is inactive: 112%; as for `CCN(C(=O)c1cc2c(=O)oc3ccccc3c2s1)c1cccc(C(F)(F)F)c1`, inactive: 145%; as for `CCOc1ccc(OCC)c(Nc2nc3ccccc3n3nnnc23)c1`, inactive: 96%.
As to `CCOC(=O)c1c(NC(=O)c2ccc(F)cc2)sc2c1CCC(CC)C2` (centres undefined), the survival is active: 9%.
Take `CCOC(=O)c1cccc(NC(=O)[C@H](CSCc2ccccc2)N2Cc3ccccc3C2=O)c1`: the survival was inactive: 66%.
As to `Cc1ccc(Nc2cc(C)nc3nncn23)c(C)c1`, the survival was inactive: 99%.
Take `CCOc1ccc(-c2nc3ccccc3c(=O)o2)cc1`: the survival was inactive: 68%.
Next, `COc1cc(NC(=O)CN(c2cc(C)cc(C)c2)S(=O)(=O)c2c(C)[nH]c(=O)[nH]c2=O)cc(OC)c1`: inactive: 66%; `C#CC(C)(CC)NC(=O)Cn1nnc(-c2ccc(OCc3c(F)cccc3Cl)cc2)n1` (centres undefined): inactive: 65%.
Next, `Cc1cn2c(=O)cc(COc3ccc(NC(=O)COc4ccccc4)cc3)nc2s1`: inactive: 131%; `Cc1ccc(-n2c(=O)c3ccc(C(=O)NCc4ccccc4Cl)cc3n(CC(=O)Nc3ccc(C)cc3C)c2=O)cc1`: inactive: 79%; `O=C(CSc1ncc2c(n1)-c1ccccc1N(Cc1ccc(F)cc1)S2(=O)=O)NCCc1ccccc1`: inactive: 94%.
As to `Cc1cc(C)cc(C(=O)n2nc(C)c(S(=O)(=O)N3CCOCC3)c2C)c1`, the survival is inactive: 87%.
As for `CN1C(=O)C2(c3ccccc31)N(c1ccc(Br)cc1)C(=O)CS2(=O)=O` (centres undefined), the figure is inactive: 99%; as for `O=C(C1CCC(Cn2c(=O)c3sccc3n(Cc3ccc(F)cc3)c2=O)CC1)N1CCOCC1` (centres undefined), inactive: 77%.
As for `O=c1[nH]c(C2CCCN(S(=O)(=O)c3ccccc3)C2)nc2c1nnn2Cc1ccc(OC(F)(F)F)cc1` (centres undefined), the figure is inactive: 76%.
Next, `Cc1cc(C)nc(NCC(C)c2ccccc2)n1` (centres undefined): inactive: 81%; `CN1C(=O)c2[nH]nc(-c3ccc(F)cc3)c2C1c1cccc(O)c1` (centres undefined): inactive: 91%; `CCOc1ccccc1C(=O)N1CCOCC1`: inactive: 88%.
Consider `CCc1[nH]nc2c1C1(C(=O)N(CC)c3ccccc31)C(C#N)=C(N)O2` (centres undefined), for which the survival was inactive: 78%.
As for `Cn1cc(-c2cc3n(n2)CCC(=O)N3CCCC(=O)NCc2ccccc2Cl)c2ccccc21`, the figure is inactive: 109%; as for `CCOC(=O)c1noc2ncn(CC(=O)Nc3ccccc3OC)c(=O)c12`, inactive: 118%.
Next, `COc1cccc(CNC(=O)CCc2c(C)c3ccc(O)c(C)c3oc2=O)c1`: inactive: 86%; `Cc1ccc(OCCOCCn2c(-c3ccc(Cl)cc3)nc3ccccc3c2=O)cc1`: active: 39%; `CCCCN(CC)CCCNC(=O)c1ccc2c(c1)NC(=O)CN2C`: inactive: 64%.
With `Cc1ccc(-n2ncc(C(=O)NCCCN3CCc4ccccc4C3)c2C2CCN(C(=O)OC(C)(C)C)CC2)c(C)c1`, the survival is inactive: 115%.
As for `CCCCOc1ccc(C2C(=O)N(C3CCCCC3)CC(=O)N2CCCC)cc1` (centres undefined), the figure is inactive: 89%; as for `O=C(O)C1CCCCC1C(=O)N1CCc2ccccc21` (centres undefined), inactive: 84%.
Next, `Cc1ccc(NC(=O)Cn2c(-c3nonc3N)nc3ccccc32)c(Br)c1`: inactive: 71%; `CCn1nc(CCC(=O)O)c2ccccc2c1=O`: inactive: 80%; `Cc1ccc(N2CCN(c3ccc(C)cc3)C2c2ccc(C)o2)cc1`: inactive: 76%.
As for `COc1ccc(C)cc1NC(=O)CN1C(=O)COc2ccc(S(=O)(=O)N3CCC(C)CC3)cc21`, the figure is inactive: 69%; as for `Cc1c(Cl)cccc1NC(=O)C(C)n1c(=O)cc(C)c2c(C)nn(-c3ccccc3)c21` (centres undefined), inactive: 88%; as for `Cc1n[nH]c(=S)n1CC(=O)N1c2ccccc2CCc2ccccc21`, inactive: 94%.
Consider `CCOc1ccc(-n2c(=O)c3c(C)c(C)sc3n(Cc3ccccc3C)c2=O)cc1`, for which the survival is inactive: 85%.
Take `CCCc1[nH]nc2c1C(CCC)C(C#N)=C(N)O2` (centres undefined): the survival was inactive: 81%.
On to `COc1ccc2c(c1)CCc1c(C(=O)Nc3ccc(C#N)cc3)noc1-2`, for which the survival is inactive: 58%.
Next, `COc1ccc(-n2c(SCc3ccccc3)nc3c([nH]c4ccccc43)c2=O)cc1`: inactive: 144%; `CC(C(=O)N1CCCc2ccccc21)N1C(=O)c2ccccc2C1=O` (centres undefined): inactive: 76%; `COc1cccc(CNC(=O)Cn2nc(N3CCN(c4ccccc4OC)CC3)ccc2=O)c1`: inactive: 86%.
As for `S=C(NNc1nc(N2CCCCC2)nc(N2CCCCC2)n1)NC1CCCCC1`, the figure is inactive: 88%.
As for `CCOCCn1ccc2c(OCC(=O)Nc3cccc([N+](=O)[O-])c3)cccc2c1=O`, the figure is inactive: 118%; as for `COc1cccc(C(=O)Nc2ccccc2OCc2cc(=O)n3ccccc3n2)c1`, inactive: 97%; as for `Cc1noc(/C=C/c2cccs2)c1S(=O)(=O)N1CCC(C(=O)NCc2ccc(Cl)cc2)CC1`, inactive: 71%.
For the compound `Cc1cccn2c(=O)c(/C=C(\C#N)c3nc4ccccc4s3)c(Oc3ccc(F)cc3)nc12`, the survival was inactive: 80%.
As for `Cc1cc(N(CCO)Cc2ccccc2)n2nc(-c3ccc(C(C)(C)C)cc3)nc2n1`, the figure is inactive: 48%.
As for `COc1cc(OC)c(NC(=O)c2cn(C3CCCC3)c(=O)c3c2c2ccccc2n3C)cc1Cl`, the figure is inactive: 74%.
